Test results from article PMC3610928.
Like-named read-outs stand apart in the source and are kept apart here. Results are given in words; binding and its absence hold for the method and conditions named. Some binding calls cover weakened binding; strength is not graded here. Blank lines part the entries; values can stand above or below the molecule they belong to.

Chains of the proteins cited; added tags and fusions are not shown. Lines headed by an entry give the natural chain unless they say otherwise; changes in a name come on top. Residues count along the entry.
UniProt Q12306, residues 1-96: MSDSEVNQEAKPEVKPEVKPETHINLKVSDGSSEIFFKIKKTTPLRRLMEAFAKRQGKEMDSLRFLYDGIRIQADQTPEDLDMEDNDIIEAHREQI

Tests used:
Assay in all cases: two-hybrid; cir^0 two-hybrid reporter yeast strain CTMD/3a co-transformed with Gal4AD and LexA fusion plasmids; co-transformants grown 24 h on a nitrocellulose membrane; lacZ reporter, β-galactosidase filter assay with X-gal
[1] = target: T1, Rep2 (2 µm plasmid partitioning protein), wild type (S. cerevisiae (2 µm plasmid)) (UniProt P03872)
T1 sequence: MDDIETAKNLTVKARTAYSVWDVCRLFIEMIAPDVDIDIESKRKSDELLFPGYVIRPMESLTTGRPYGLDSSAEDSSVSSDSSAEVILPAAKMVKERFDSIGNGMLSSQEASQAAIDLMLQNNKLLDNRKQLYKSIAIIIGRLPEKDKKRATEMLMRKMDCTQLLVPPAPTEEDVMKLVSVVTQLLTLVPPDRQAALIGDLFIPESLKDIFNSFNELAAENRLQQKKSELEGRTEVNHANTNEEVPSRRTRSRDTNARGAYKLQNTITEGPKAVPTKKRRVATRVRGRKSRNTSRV

[2] = target: T2, Nis1 SUMO interaction-motif-containing domain (residues 357–408) (yeast (S. cerevisiae)) (UniProt P53939)
T2 sequence: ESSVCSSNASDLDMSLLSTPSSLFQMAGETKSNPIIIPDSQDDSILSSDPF

[3] = target: T3, Rep1 (2 µm plasmid partitioning protein), wild type (S. cerevisiae (2 µm plasmid)) (UniProt P03871)
T3 sequence: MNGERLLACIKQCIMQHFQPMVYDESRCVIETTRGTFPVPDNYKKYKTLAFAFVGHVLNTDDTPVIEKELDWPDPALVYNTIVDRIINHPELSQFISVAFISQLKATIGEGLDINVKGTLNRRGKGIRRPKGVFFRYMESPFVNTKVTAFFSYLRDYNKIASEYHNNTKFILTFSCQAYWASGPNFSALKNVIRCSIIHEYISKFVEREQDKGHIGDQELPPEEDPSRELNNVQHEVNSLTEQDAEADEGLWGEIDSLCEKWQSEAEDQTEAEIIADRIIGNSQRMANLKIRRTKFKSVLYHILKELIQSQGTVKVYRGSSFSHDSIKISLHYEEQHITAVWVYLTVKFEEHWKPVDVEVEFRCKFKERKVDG

[4] = target: T4, Rep1_(I202T) (S. cerevisiae (2 µm plasmid)) (UniProt P03871)
T4 sequence: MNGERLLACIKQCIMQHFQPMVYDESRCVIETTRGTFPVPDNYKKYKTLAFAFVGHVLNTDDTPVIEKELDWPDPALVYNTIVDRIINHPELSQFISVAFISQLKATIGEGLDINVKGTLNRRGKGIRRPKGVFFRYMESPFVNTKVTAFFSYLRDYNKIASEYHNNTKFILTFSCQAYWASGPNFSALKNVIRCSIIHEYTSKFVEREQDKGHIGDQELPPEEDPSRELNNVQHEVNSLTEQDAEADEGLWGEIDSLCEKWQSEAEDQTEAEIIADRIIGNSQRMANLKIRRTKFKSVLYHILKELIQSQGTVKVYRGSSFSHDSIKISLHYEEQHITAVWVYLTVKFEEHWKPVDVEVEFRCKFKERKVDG

[5] = target: T3, Rep1 (2 µm plasmid partitioning protein), wild type (S. cerevisiae (2 µm plasmid)); remark: listed apart in the source
[6] = target: T5, Rep1-K305,315,328R (Rep1_(3R)) (S. cerevisiae (2 µm plasmid)) (UniProt P03871)
T5 sequence: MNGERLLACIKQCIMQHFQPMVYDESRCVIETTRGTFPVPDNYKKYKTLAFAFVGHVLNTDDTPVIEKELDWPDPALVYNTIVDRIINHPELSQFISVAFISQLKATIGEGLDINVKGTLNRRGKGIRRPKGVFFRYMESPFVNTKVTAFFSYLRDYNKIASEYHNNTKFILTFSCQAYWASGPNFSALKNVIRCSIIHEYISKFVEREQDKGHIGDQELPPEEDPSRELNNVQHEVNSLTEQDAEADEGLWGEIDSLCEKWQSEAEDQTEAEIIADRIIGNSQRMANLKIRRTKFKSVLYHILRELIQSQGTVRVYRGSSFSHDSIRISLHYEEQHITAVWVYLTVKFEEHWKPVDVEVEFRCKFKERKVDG

binding [1]: no binding | binding [2]: binds | binding [3]: no binding
Molecule: SUMOΔGG (conjugation-defective SUMO lacking the two C-terminal glycine residues) (from UniProt Q12306 1-96) (domain or fragment)

binding [4]: binds | binding [5]: binds
B1: Rep2 (2 µm plasmid partitioning protein), wild type (protein, UniProt P03872 1-296)
chain: MDDIETAKNLTVKARTAYSVWDVCRLFIEMIAPDVDIDIESKRKSDELLFPGYVIRPMESLTTGRPYGLDSSAEDSSVSSDSSAEVILPAAKMVKERFDSIGNGMLSSQEASQAAIDLMLQNNKLLDNRKQLYKSIAIIIGRLPEKDKKRATEMLMRKMDCTQLLVPPAPTEEDVMKLVSVVTQLLTLVPPDRQAALIGDLFIPESLKDIFNSFNELAAENRLQQKKSELEGRTEVNHANTNEEVPSRRTRSRDTNARGAYKLQNTITEGPKAVPTKKRRVATRVRGRKSRNTSRV

binding [6]: binds
B2: Rep2-K42,44,92,124,130,134,146,148,149,177,208,226,227R (Rep2_(13R)) (protein, UniProt P03872 1-296)
chain: MDDIETAKNLTVKARTAYSVWDVCRLFIEMIAPDVDIDIESRRRSDELLFPGYVIRPMESLTTGRPYGLDSSAEDSSVSSDSSAEVILPAARMVKERFDSIGNGMLSSQEASQAAIDLMLQNNRLLDNRRQLYRSIAIIIGRLPERDRRRATEMLMRKMDCTQLLVPPAPTEEDVMRLVSVVTQLLTLVPPDRQAALIGDLFIPESLRDIFNSFNELAAENRLQQRRSELEGRTEVNHANTNEEVPSRRTRSRDTNARGAYKLQNTITEGPKAVPTKKRRVATRVRGRKSRNTSRV
